Measured values reported in PubChem BioAssay (EPA / NIEHS).
Results filed as inconclusive are left out. The calls were made as follows, unless noted: active = hit-call score of the fitted dose curve at least 0.9, where 1 is the maximum; inconclusive = response in the unintended direction; inactive = score below 0.9. For part of its entries the source gives two or more results. The other results are left out here. There may be further records. Values that stand side by side are repeats across runs, samples, wells, individuals or studies. The source holds several records for some structures; these can differ, active in one and inactive in another. Additions like (4×) say how often a value occurs here.

Assays:
[1] = ATG_E_Box_CIS: Attagene CIS-FACTORIAL HepG2 Assay for human Enhancer Box (E-box) (AID 2282936; active = hit-call score of the fitted dose curve at least 0.9, where 1 is the maximum; inactive = score below 0.9); conditions: HepG2 E-box cis-reporter transcription, actives raise or lower the signal
In short: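 E-box-driven reporter transcripts measured in transiently transfected HepG2 after 24 h exposure: RNA reverse-transcribed, PCR-amplified, fluorescently labelled, digested and resolved by capillary electrophoresis. Gain or loss relative to DMSO.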

[2] = ATG_MRE_CIS: Attagene CIS-FACTORIAL HepG2 Assay for human Metal Responsive Element (MRE) (AID 2282954; active = hit-call score of the fitted dose curve at least 0.9, where 1 is the maximum; inactive = score below 0.9); conditions: HepG2 MRE cis-reporter transcription, Attagene multiplex; actives raise or lower the signal
In short: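 Endogenous MRE-dependent transcription read as reporter mRNA in transiently transfected human HepG2 cells at 24 h. RNA reverse-transcribed, PCR-amplified, labelled and resolved by capillary electrophoresis; gain or loss relative to DMSO.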

[3] = target: X-box-binding protein 1 (Homo sapiens) (UniProt P17861); experiment: ATG_Xbp1_CIS: Attagene CIS-FACTORIAL HepG2 Assay for human X-box Binding Protein 1 (XBP1) (AID 2282972; active = hit-call score of the fitted dose curve at least 0.9, where 1 is the maximum; inactive = score below 0.9); conditions: HepG2 XBP1 cis-element reporter, Attagene multiplex; actives raise or lower the signal
Sequence of UniProt P17861 (P17861 whole entry, looked up, the tested form may be a part): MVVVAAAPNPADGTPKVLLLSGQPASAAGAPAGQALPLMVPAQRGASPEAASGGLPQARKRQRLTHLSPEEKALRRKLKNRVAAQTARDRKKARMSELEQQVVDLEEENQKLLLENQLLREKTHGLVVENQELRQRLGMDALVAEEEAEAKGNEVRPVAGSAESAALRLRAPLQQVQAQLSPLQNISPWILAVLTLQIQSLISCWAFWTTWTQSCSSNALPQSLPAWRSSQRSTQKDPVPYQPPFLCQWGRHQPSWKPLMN
In short: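 Read-out: fluorescent reporter mRNA fragments resolved by capillary electrophoresis after RT-PCR. Human HepG2 liver cells carried transfected cis-promoter reporter units and were exposed to chemicals for 24 hours. Gain or loss of signal fitted relative to DMSO baseline.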

[4] = ATG_NRF2_ARE_CIS: Attagene CIS-FACTORIAL HepG2 Assay for human Nuclear Factor Erythroid 2 Related Factor 2 (NFR2) response to Antioxidant Response Elements (ARE) (AID 2282992; active = hit-call score of the fitted dose curve at least 0.9, where 1 is the maximum; inactive = score below 0.9;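 also: reporter mRNA level measured by RT-PCR and capillary electrophoresis fluorescence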); conditions: HepG2 Attagene ARE/NRF2 reporter, transcription factor activity; actives raise or lower the signal
In short: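 Readout: reporter mRNA quantified by RT-PCR plus FAM-labelled primer extension, HpaI digestion and capillary electrophoresis, 24 h after dosing transfected HepG2 cells. Gain or loss of signal is fitted bidirectionally against DMSO baseline.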

[5] = ATG_Oct_MLP_CIS: Attagene CIS-FACTORIAL HepG2 Assay for human Octamer-Binding Transcription Factor (Oct) (AID 2282993; active = hit-call score of the fitted dose curve at least 0.9, where 1 is the maximum; inactive = score below 0.9); conditions: HepG2 Attagene cis-factorial Oct reporter, mRNA; actives raise or lower the signal
In short: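 Readout is reporter transcript level from RT-PCR with fluorescent primer extension and capillary electrophoresis, fitted in both directions against DMSO. Transfected HepG2 reporter units report endogenous factor activity after 24 h dosing.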

[6] = target: Peroxisome proliferator-activated receptor gamma (Homo sapiens) (UniProt P37231); experiment: ATG_PPARg_TRANS: Attagene TRANS-FACTORIAL HepG2 Assay for human Peroxisome Proliferator-activated Receptor-gamma (PPARg) (AID 2283007)
Sequence of UniProt P37231 (P37231 whole entry, looked up, the tested form may be a part): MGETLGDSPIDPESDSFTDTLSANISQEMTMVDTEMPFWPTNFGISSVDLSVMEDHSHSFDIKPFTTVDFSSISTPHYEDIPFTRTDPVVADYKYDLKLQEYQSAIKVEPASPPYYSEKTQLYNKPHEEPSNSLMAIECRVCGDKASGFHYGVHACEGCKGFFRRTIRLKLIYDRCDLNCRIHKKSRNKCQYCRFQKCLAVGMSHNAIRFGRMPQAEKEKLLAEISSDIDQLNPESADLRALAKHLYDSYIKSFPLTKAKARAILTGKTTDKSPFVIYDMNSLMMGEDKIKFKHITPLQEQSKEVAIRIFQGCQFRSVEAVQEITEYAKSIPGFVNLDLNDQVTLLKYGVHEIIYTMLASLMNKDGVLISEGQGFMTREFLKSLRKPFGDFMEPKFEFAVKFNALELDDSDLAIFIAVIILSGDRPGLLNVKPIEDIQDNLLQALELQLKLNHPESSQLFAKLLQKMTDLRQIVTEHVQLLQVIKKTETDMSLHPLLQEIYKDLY
In short: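 Liver-derived HepG2 cells expressing an exogenous NR-Gal4 chimera alongside GAL4-UAS reporter genes; 24 h exposure. Fluorescence of reporter RT-PCR products, separated by capillary electrophoresis, gives mRNA induction relative to DMSO.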

[7] = BSK_SAg_Proliferation: Cell Proliferation Assessment in the BioMAP Diversity Plus: SAg Assay (AID 2283095; active = hit-call score of the fitted dose curve at least 0.9, where 1 is the maximum; inactive = score below 0.9;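 also: relative cell number as total protein by SRB absorbance in sub-confluent culture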); conditions: primary human HUVEC with PBMC
In short: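 Relative cell number in the endothelial cell/PBMC co-culture was quantified at 96 h by SRB staining (0.1% SRB, 10% TCA fixation, read at 560 nm). Curves were fitted in both directions relative to DMSO baseline.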

[8] = target: Cytochrome P450 2C19 (Homo sapiens) (UniProt P33261); experiment: NVS_ADME_hCYP2C19: NovaScreen (NVS) CYP450-related Enzyme Activity (ADME) Assay for human CYP2C19 (AID 2283113);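 also: potency for inhibition seen as loss of fluorescent signal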
Sequence of UniProt P33261 (P33261 whole entry, looked up): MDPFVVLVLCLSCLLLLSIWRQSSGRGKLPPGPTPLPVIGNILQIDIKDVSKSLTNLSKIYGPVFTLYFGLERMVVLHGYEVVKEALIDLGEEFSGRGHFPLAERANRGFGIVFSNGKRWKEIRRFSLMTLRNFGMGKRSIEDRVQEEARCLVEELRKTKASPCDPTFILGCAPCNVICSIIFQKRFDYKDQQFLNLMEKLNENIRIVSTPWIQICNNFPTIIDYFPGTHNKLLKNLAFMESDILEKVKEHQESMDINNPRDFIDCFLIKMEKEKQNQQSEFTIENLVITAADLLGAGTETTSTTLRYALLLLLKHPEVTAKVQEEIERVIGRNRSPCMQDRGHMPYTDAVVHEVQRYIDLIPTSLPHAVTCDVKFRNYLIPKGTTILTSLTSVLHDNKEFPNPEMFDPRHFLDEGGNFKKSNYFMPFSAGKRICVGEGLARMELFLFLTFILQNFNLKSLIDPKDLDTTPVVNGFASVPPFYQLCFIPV
In short: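 Cell-free recombinant human CYP2C19 from insect cells, fluorescent substrate; activity read by fluorescence intensity 1 h after dosing. Primary screen in duplicate at 10 uM; actives retested in concentration series. Signal loss versus acetonitrile negative control.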

[9] = target: human Caspase 5 (CASP5), CASP5 (gene 838) (UniProt P51878); experiment: NVS_ENZ_hCASP5: NovaScreen (NVS) Enzymatic Assay for human Caspase 5 (CASP5) (AID 2283137)
Sequence of UniProt P51878 (P51878 whole entry, looked up): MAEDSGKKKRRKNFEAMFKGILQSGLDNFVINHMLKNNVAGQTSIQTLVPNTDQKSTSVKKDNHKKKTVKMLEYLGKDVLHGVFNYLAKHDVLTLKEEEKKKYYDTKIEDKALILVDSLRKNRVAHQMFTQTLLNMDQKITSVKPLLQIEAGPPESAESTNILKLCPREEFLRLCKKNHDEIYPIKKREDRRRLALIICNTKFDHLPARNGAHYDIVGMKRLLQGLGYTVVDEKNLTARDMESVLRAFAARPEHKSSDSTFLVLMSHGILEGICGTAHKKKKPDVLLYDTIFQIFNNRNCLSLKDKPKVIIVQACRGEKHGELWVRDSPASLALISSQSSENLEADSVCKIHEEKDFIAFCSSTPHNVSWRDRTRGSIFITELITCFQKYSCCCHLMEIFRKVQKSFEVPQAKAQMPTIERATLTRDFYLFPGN
In short: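 Loss of fluorescent signal versus DMSO scored for E. coli-derived human CASP5 cleaving a fluorescent substrate, 2 h post-dosing; compounds first tested at 25 uM in duplicate, hits rerun in concentration series with 50 uM top concentration.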

[10] = target: human Dual Specificity Protein Phosphatase 3 (DUSP3), DUSP3 (gene 1845) (UniProt P51452); experiment: NVS_ENZ_hDUSP3: NovaScreen (NVS) Enzymatic Assay for human Dual Specificity Protein Phosphatase 3 (DUSP3) (AID 2283152);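 also: phosphatase activity of recombinant human DUSP3 on a fluorogenic substrate without cells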
Sequence of UniProt P51452 (P51452 whole entry, looked up): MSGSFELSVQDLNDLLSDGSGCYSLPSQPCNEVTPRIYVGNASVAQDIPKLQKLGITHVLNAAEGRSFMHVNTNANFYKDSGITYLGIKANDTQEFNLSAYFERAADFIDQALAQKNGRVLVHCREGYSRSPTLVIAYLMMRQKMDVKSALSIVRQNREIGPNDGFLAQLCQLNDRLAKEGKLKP
In short: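 Cell-free fluorescence-intensity enzyme activity assay with recombinant protein and substrate; loss of signal fitted relative to DMSO baseline. Primary screen in duplicate at 25 uM, actives then run in concentration series; measured 0 h after dosing.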

[11] = target: human Elastase, ELANE (gene 1991) (UniProt P08246); experiment: NVS_ENZ_hElastase: NovaScreen (NVS) Enzymatic Assay for human Elastase (AID 2283153)
Sequence of UniProt P08246 (P08246 whole entry, looked up): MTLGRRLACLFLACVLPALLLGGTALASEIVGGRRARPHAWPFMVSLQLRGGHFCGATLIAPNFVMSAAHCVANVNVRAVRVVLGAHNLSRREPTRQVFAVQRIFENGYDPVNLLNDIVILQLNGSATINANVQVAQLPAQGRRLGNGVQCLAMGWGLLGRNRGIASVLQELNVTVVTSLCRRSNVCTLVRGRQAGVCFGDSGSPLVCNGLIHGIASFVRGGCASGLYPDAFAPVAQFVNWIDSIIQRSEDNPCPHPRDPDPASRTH
In short: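 Concentration-response to 50 uM max, run singly for chemicals passing a threshold (e.g., 30% inhibition) in a duplicate 25 uM single-point screen. Neutrophil-derived human elastase, absorbance read-out of enzyme activity at 1.5 h; DMSO baseline.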

[12] = target: human Protein Tyrosine Phosphatase Receptor Type M (PTPRM), PTPRM (gene 5797) (UniProt P28827); experiment: NVS_ENZ_hPTPRM: NovaScreen (NVS) Enzymatic Assay for human Protein Tyrosine Phosphatase Receptor Type M (PTPRM) (AID 2283215)
Sequence of UniProt P28827 (P28827 whole entry, looked up): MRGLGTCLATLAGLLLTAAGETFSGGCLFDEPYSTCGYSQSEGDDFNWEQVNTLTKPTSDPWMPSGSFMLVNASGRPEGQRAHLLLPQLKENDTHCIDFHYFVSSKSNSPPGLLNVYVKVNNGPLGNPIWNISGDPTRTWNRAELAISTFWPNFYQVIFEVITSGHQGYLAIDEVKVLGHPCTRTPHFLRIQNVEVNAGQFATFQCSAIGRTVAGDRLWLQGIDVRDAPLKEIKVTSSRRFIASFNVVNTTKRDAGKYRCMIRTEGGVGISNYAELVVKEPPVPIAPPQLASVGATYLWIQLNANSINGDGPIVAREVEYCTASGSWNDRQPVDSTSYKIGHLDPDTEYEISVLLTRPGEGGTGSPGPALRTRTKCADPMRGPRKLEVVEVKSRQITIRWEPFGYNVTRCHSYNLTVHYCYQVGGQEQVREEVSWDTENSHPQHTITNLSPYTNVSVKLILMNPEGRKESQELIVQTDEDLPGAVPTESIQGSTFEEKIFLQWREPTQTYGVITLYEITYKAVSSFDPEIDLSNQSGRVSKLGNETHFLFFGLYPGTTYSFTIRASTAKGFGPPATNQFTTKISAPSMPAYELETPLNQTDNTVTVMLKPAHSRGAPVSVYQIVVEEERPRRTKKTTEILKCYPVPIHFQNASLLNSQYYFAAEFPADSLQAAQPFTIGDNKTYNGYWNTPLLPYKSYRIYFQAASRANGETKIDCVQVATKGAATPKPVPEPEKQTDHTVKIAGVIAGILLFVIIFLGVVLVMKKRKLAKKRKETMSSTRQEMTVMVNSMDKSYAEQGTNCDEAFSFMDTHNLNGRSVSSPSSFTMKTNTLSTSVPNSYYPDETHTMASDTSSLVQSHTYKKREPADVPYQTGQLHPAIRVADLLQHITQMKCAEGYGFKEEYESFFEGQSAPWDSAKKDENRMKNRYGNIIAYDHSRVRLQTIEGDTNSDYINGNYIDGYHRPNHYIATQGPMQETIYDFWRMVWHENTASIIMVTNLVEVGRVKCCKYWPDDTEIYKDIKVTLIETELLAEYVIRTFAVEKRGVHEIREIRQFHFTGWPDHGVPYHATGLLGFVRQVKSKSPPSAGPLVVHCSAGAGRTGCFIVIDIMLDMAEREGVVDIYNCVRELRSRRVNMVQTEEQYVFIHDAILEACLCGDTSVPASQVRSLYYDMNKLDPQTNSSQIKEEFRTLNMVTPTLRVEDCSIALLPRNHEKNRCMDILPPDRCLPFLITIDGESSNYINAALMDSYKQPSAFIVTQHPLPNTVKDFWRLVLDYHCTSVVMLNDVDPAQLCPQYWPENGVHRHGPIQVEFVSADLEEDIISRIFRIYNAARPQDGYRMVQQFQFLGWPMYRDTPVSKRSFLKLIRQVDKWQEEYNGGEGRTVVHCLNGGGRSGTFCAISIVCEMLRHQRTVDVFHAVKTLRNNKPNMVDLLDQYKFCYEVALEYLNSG
In short: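 Read-out is fluorescence after electrophoretic separation of substrate and product, taken 1.33 h post-dosing with recombinant enzyme. Compounds screened at 25 uM in duplicate, then concentration series for actives; activity as signal loss relative to DMSO.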

[13] = target: human Neuropeptide Receptor Y1 (NPY1), NPY1R (gene 4886) (UniProt P25929); experiment: NVS_GPCR_hNPY1: NovaScreen (NVS) G Protein-Coupled Receptor Assay for human Neuropeptide Receptor Y1 (NPY1) (AID 2283276)
Sequence of UniProt P25929 (P25929 whole entry, looked up): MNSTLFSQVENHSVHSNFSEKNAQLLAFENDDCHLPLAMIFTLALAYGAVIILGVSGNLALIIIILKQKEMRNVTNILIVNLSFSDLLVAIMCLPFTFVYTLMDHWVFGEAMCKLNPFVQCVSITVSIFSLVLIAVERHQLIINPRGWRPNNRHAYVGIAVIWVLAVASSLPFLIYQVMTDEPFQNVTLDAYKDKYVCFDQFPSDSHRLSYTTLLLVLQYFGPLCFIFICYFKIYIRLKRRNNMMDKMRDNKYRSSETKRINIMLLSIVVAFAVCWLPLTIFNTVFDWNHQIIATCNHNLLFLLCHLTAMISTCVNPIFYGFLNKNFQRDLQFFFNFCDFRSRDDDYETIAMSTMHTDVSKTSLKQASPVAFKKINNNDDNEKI
In short: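 Displacement of specific radioligand from NPY1 receptor of SK-N-MC origin, read by filtration and scintillation after 1 h. Compounds first tested at 25 uM in duplicate, then actives in concentration series; signal loss relative to DMSO.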

[14] = target: human Orphanin, Opioid Related Nociceptin Receptor 1 (ORL1), OPRL1 (gene 4987) (UniProt P41146); experiment: NVS_GPCR_hORL1: NovaScreen (NVS) G Protein-Coupled Receptor Assay for human Orphanin, Opioid Related Nociceptin Receptor 1 (ORL1) (AID 2283283)
Sequence of UniProt P41146 (P41146 whole entry, looked up): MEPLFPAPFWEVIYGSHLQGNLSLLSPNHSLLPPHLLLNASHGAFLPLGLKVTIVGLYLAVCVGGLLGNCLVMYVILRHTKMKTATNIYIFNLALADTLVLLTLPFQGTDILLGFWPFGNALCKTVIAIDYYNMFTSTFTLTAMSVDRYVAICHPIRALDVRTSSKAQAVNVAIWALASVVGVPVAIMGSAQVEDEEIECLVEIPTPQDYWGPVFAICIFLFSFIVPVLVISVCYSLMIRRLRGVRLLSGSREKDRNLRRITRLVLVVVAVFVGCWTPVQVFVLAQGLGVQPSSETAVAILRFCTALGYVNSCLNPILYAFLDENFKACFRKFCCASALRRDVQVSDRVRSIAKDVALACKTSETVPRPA
In short: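 Cell-free binding using HEK293-derived receptor protein: radioligand displacement measured by filter scintillation 1 hour after dosing. Primary testing at 25 uM in duplicate, followed by singleton concentration series up to 50 uM; DMSO served as negative control.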

[15] = target: rat Neurokinin-3 Receptor (NK3), Tacr3 (gene 24808) (UniProt P16177); experiment: NVS_GPCR_rNK3: NovaScreen (NVS) G Protein-Coupled Receptor Assay for rat Neurokinin-3 Receptor (NK3) (AID 2283310)
Sequence of UniProt P16177 (P16177 whole entry, looked up): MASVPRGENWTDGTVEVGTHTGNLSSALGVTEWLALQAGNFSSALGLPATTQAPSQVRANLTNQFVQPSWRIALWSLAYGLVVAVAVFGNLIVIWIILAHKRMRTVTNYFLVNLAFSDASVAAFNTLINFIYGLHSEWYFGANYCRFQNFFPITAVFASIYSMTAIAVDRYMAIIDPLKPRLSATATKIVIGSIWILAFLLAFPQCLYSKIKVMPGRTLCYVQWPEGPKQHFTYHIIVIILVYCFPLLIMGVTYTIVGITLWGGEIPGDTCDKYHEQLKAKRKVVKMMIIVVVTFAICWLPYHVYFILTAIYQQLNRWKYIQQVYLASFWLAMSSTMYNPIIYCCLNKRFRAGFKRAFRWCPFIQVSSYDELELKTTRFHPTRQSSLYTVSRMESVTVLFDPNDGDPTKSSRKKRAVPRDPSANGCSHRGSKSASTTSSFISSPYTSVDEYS
In short: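 Filter-based radioligand displacement on rat cortex membrane preparations, read by scintillation 2 h post-dose. Chemicals first tested in duplicate at 25 uM; actives followed up in concentration series with a 50 uM maximum.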

[16] = CCTE_Simmons_CellTiterGLO_HEK293T: Viability Assessment in CCTE's Assays for Thyroperoxidase (TPO) Inhibition, Simmons Lab (AID 2283665);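 also: cells exposed to compound for 24 h before readout; actives reduce ATP signal below DMSO vehicle meaning cytotoxicity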
In short: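 Luciferase-coupled ATP content after 24 h exposure gives viability; 8-point series from 5 nM to 87.5 uM final in 0.5% DMSO. Human HEK293T cells, 1% FBS medium, three biological replicates, dichlone positive control.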

S=C(S)NCCNC(=S)S.[Mn+2].[S-]C([S-])=NCCN=C([S-])[S-].[Zn+2]
AC50 [1]: active: 635 nM, 1.76 µM, 713 nM, 487 nM [separate samples] | AC50 [2]: active: 12.3, 50, 22.4, 28.7 µM [separate samples] | AC50 [3]: active: 447 nM, 1.88 µM, 2.05 µM, 9.71 µM, 979 nM [separate samples] | AC50 [4]: active: 13.7, 5.33, 3.64, 8.8, 9.92 µM [separate samples] | AC50 [5]: active: 410 nM, 1.19 µM, 3.9 µM, 583 nM [separate samples] | AC50 [6]: active: 15.3, 14.2, 50, 22.9 µM [separate samples] | AC50 [7]: active: 2.5, 6.57, 6.63, 3.21, 25.3 µM [separate samples] | AC50 [8]: active: 990 nM, 2.65 µM, 2.79 µM, 2.42 µM, 2.32 µM, 3.49 µM, 6.82 µM [separate samples] | AC50 [9]: active: 5.28 µM, 4.59 µM, 4.75 µM, 883 nM, 2.29 µM, 1.51 µM, 4.14 µM [separate samples] | AC50 [10]: active: 1.4 µM, 5.62 µM, 12.5 µM, 3.3 µM, 7.09 µM, 4.32 µM, 19.8 nM [separate samples] | AC50 [11]: active: 2.6, 3.49, 10.5, 2.87, 1.62, 6.84 µM [separate samples] | AC50 [12]: active: 3.57 µM, 845 nM, 5.28 µM, 10.1 µM [separate samples] | AC50 [13]: active: 4.59, 4.75, 4.16, 13 µM [separate samples] | AC50 [14]: active: 513 nM, 163 nM, 6.42 µM, 617 nM, 12.5 µM, 8.53 µM, 2.23 µM [separate samples] | AC50 [15]: active: 3.6, 5.29, 7.18, 3.7 (2×), 25 µM [separate samples] | AC50 [16]: active: 21.9, 31.4, 2.48, 41.7, 41.8 µM [separate samples]
